Results published in the supplement of paper PMC3334620.
Whole data set: some 33,000 sequences, median “E-score (-0.5 to 0.5)” near -0.021, cut for the highest 2% near 0.32. Some of the results follow.

biological target: T1, Zap1 (UniProt P47043); assay: PBM E-score (8-mer binding enrichment) (E-score (-0.5 to 0.5)); higher = stronger / more preferred TF binding; most listed sequences are background and not binding sites; conditions: protein concentration: 200 nM; construct: GST-full length
T1 sequence: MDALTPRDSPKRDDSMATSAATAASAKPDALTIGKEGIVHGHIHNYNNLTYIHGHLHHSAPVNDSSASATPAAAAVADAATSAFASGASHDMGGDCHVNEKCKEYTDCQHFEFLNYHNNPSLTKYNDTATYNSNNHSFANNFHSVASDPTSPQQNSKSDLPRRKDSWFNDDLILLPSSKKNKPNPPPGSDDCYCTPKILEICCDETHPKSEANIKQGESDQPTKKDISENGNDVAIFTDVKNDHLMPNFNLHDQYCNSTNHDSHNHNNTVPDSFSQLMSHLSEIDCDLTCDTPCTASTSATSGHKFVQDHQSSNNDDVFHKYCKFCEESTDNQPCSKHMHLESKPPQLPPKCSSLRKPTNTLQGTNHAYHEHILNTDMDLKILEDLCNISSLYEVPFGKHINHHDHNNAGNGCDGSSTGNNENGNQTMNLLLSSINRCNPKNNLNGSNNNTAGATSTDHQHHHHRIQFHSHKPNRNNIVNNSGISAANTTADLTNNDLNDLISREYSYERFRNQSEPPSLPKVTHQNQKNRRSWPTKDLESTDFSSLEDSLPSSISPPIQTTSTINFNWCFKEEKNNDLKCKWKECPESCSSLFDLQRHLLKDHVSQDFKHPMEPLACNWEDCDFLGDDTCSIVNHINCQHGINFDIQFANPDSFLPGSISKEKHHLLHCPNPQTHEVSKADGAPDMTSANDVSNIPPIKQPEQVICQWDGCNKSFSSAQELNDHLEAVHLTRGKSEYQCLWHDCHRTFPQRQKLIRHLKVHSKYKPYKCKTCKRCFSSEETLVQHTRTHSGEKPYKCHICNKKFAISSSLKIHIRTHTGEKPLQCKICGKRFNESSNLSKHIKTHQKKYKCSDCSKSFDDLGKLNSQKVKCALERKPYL
Procedure, shortened: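 E-scores (a modified Wilcoxon-Mann-Whitney statistic) were assigned by the Universal PBM Analysis Suite to every ungapped eight-base word pooled with its reverse complement. The input came from universal all-10-mer Agilent arrays made double-stranded by primer extension and probed with GST-tagged yeast transcription factors at about 100-200 nM. Fluorescent anti-GST detected bound protein, and masliner normalised the scans.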

Sequence | PBM E-score
ACGGTTGG | -0.0119
ACCAGTAC | 0.115
CACGCACC | -0.0856
ACTAGGCT | 0.0455
AGGCTAGA | -0.15
CTGTCTGC | -0.24
CCTTCTAG | 0.123
ATGAGGTG | 0.0386
GCAGGGTA | 0.373
TGGACACA | -0.0121
AATCCCTG | -0.122
TTTATAAA | 0.248
ACTGGAAC | -0.0151
ACTACACT | -0.0734
ACGATAAC | 0.298
ATCGCTCG | -0.126
AGTCGATG | -0.141
AAGCCAGT | -0.294
AGGGAGGC | -0.281
ACTCGCGG | 0.129
CGATGATC | -0.00936
ATGTCACG | -0.195
AAGACGAG | -0.161
GAGGCAAA | 0.0604
AGCGTTGA | -0.143

Sequence | PBM E-score
GACGGTGC | -0.0913
GTGGCCAC | 0.214
CGGTTAAA | 0.328
ACTGCATC | -0.00683
GAGGTTGA | -0.00385
ATTATAAA | 0.0699
CCTAGCGA | -0.23
TACCGAGA | 0.156
CAGACCAC | 0.0673
GACTCAGA | -0.0646
AATTTGAC | 0.118
AAGCCCCG | -0.183
TTGAGCAA | -0.0776
GAGTACGC | -0.0819
GCAGAGAC | -0.307
CCTCCTGC | -0.168
CGCATTAA | 0.172
AACCTTGG | 0.274
CAACCCAG | 0.113
CTGGACAA | -0.16
CGACAAAA | 0.277
ACCACCGA | 0.172
TCTGCCCA | -0.289
AGTGCGAT | -0.0361
GGTTCAGA | -0.0861

Sequence | PBM E-score
GGTTTTGA | 0.253
AGAGGACC | 0.0193
CTTTTGGA | 0.0485
TCAATAAA | 0.0711
TCCAGAGA | -0.321
CCGATACC | 0.0713
CCCTCACA | 0.027
ACCATCTC | -0.0172
CCATATGA | 0.0912
ATAGAGGC | -0.125
ATTCAGGA | -0.058
AGTATCGC | -0.241
CTTCACGA | -0.189
AAAGAACT | 0.0294
GCATGGTA | 0.132
CTTTTCGA | 0.104
GTATCGAA | 0.185
TATTCGCA | 0.0161
CGAACAAA | 0.254
CAGCGAAG | -0.0164
GACCTCAA | 0.295
CCCACCGC | 0.00509
ATCTCCTG | 0.063
GCTCGAAA | -0.0282
CAACCGAG | 0.078

Sequence | PBM E-score
ATTGTTCG | 0.234
GCACGCCA | -0.201
GCGGCGCC | 0.131
TCTCTAAA | -0.0277
AGGTAGGA | 0.00828
GACCTAAA | 0.151
GAAAGCAA | 0.179
ACACGATA | 0.059
TGGTCCAA | -0.0135
CTAGGGAG | -0.129
ACCTTAGC | 0.237
CCGTAAGA | -0.119
CTAGAACA | -0.0455
TGAGCGAA | 0.0429
AACCCCGA | 0.266
GGGCCCCC | -0.0263
AGCGTACG | -0.279
AGGGTCAT | 0.449
AACGTCGT | -0.125
CTGGCTGA | -0.273
GTGTAGTA | 0.00904
AGTCGCAA | 0.0255
ATTAATAG | 0.195
CCCACCAA | -0.0734
AAGGCCCT | 0.0667

Sequence | PBM E-score
CTCAAAGC | -0.0283
AGTTGGAA | -0.042
AATCGGTA | 0.00973
TCACCTAA | 0.116
CATTCGCA | -0.087
GAATGTGA | -0.0969
GAGAGCTC | -0.0971
ATCAGTTC | -0.0391
AGATCCAG | -0.0992
AATCGCGT | 0.0556
CTCCACTA | -0.0846
GAACTGGC | -0.0649
AGAAGAGC | -0.32
AGACCACA | 0.121
CCGAATCG | -0.103
ACTACGCG | -0.00612
AAACGTCG | -0.109
AATTATGT | 0.00153
CCGTGAGC | -0.191
ACCGTTCC | 0.0949
AGAGACGA | -0.0945
GCAGTGGC | -0.0743
CACCAGTA | -0.0763
ATAGGGGC | -0.0114
CATTACAA | -0.0413

Sequence | PBM E-score
AAACTGGA | -0.0165
CAGTATGG | -0.068
TCAACCGA | 0.0646
CGATCGTC | -0.00989
CAGCGTAA | -0.0388
CCACAGTC | -0.166
AAACATAT | 0.201
AAGTGCCA | -0.118
GTTGTGGA | 0.133
CGAAAAAC | 0.154
GGATGCAA | 0.0164
CCCGTCCC | -0.137
CAAGGCTC | -0.353
CGAGCATA | -0.143
GTAACTGA | -0.0518
AGGTCTGG | -0.0286
AAGACACT | -0.11
ATGAGAAT | -0.0179
CGCGAGCG | -0.207
ATATACCC | 0.228
AGTTCTTA | 0.0253
CTATACAG | -0.0315
CGCACGAG | -0.205
CACGTCTA | 0.00514
GGTTATAC | 0.461

Sequence | PBM E-score
CACTGCTC | -0.0463
CGGTGCGC | -0.0033
AATCCGTA | -0.17
GCACCCTA | 0.297
AATCTTTC | 0.0271
GTATGAAC | 0.128
AATCACTG | 0.0527
ACACTCGG | -0.113
GCTGGGAC | -0.313
ATACACTG | -0.171
GACATACC | 0.101
AGAAAGCT | -0.0049
CCGCTAGA | -0.135
CTGGATGA | -0.138
GGGACTGA | -0.168
AGAAGGTG | 0.213
AGTAGGAG | -0.192
GGGGTAAA | 0.269
AACAGTCC | -0.225
AGATCGCA | -0.127
AGGAAGCG | -0.13
ACGGACCT | 0.0309
